The whole screen tested about 310,000 compounds, of which about 2,200 (0.71%) showed an effect of 50% or more. The effect is printed as a negative number. This is one part of the list.

The values that follow come from PMC4336329 (PLoS ONE, 2015).

The target of the assay is human ether-à-go-go-related gene (hERG) potassium channel (human, UniProt Q12809). Briefly: primary screen, population patch clamp on CHO cells stably expressing hERG.
Sequence of human ether-à-go-go-related gene (hERG) potassium channel (Q12809 whole entry, looked up): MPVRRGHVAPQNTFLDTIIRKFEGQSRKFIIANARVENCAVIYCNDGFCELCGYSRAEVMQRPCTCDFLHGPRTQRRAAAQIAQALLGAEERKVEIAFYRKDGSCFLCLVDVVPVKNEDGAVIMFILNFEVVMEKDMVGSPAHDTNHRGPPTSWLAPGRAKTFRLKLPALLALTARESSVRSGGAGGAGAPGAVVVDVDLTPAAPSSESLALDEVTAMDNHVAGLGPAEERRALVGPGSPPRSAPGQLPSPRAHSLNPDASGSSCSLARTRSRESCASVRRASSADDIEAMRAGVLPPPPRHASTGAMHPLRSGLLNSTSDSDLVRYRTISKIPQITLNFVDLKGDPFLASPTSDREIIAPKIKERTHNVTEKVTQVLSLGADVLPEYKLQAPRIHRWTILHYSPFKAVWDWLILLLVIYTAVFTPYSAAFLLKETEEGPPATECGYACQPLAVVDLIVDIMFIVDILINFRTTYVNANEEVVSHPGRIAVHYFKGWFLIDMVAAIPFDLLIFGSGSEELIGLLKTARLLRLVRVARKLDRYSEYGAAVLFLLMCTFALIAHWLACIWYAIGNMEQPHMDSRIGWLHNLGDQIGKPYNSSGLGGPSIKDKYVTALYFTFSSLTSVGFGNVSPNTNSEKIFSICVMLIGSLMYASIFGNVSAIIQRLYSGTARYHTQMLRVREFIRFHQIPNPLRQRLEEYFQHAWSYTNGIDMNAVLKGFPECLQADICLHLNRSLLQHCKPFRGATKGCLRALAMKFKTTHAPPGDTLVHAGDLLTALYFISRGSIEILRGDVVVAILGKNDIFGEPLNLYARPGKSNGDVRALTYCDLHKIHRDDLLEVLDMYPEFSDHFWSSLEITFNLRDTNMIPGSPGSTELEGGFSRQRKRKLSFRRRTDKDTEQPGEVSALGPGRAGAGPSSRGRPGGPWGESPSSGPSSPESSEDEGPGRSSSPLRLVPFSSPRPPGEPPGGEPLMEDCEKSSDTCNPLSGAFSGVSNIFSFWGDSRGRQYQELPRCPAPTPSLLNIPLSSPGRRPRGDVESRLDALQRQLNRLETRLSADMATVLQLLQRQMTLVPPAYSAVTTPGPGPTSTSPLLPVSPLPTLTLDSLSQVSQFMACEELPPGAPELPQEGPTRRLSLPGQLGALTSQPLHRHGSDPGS
In the case of `CCOP(=O)(OCC)C(c1ccccc1)N(C)C=O` (stereo not drawn), the “hERG current change (%, negative = inhibition) at 1uM” value was -7.97%.
For `C/C(=N\NC(=O)C(N)=O)c1ccc(OC(F)F)cc1` the value was 4.24%; for `CC(Oc1ccccc1F)C(=O)/C=C/N(C)C` (stereo not drawn), 22%.
Consider `CCCN1CN=C(NS(=O)(=O)c2ccc(C)cc2)NC1`, for which the “hERG current change (%, negative = inhibition) at 1uM” value was 15.9%.
`O=C(NCc1ccccc1)c1cccn(Cc2ccccc2)c1=O`: the “hERG current change (%, negative = inhibition) at 1uM” value stood at 6.04%.
For `O=C(OCCc1cc2ccccc2c(=O)o1)c1ccc2c(c1)OCO2` the value was 12.3%.
Turning to `Cc1ccc(N2C(=O)Nc3ccccc3S2(=O)=O)cc1Cl`, the “hERG current change (%, negative = inhibition) at 1uM” value is 8.43%.
As for `CCCNC(=O)c1cc2ccccc2c(=O)o1`, the “hERG current change (%, negative = inhibition) at 1uM” value is reported as 10.5%.
With `COc1ccc2oc(=N)c(C(=O)Nc3ccc(C)cc3)cc2c1`, the “hERG current change (%, negative = inhibition) at 1uM” value came out at 16.1%.
With `COC(=O)[C@H](Cc1ccccc1)NS(=O)(=O)N[C@@H](Cc1ccccc1)C(=O)OC` the figure was 11.4%.
For `CC(C)(C)Cc1nnc(NC(=O)CSc2ccccc2)s1` the value was 12.2%; for `O=C(O)c1cc(-c2ccc(Cl)cc2)n(-c2ccccc2)n1`, 21.9%.
`O=C(CSc1nnc(COc2cccc3cccnc23)o1)N1CCCC1`: the “hERG current change (%, negative = inhibition) at 1uM” value stood at 10.8%.
Turning to `CCn1ccc(C(=O)NC2CCCC2)n1`, the “hERG current change (%, negative = inhibition) at 1uM” value was 8.64%.
With `O=C(O)CC(CC(=O)Nc1ccc(-n2ccc(C(F)(F)F)n2)cc1)c1ccccc1` (stereo not drawn), the “hERG current change (%, negative = inhibition) at 1uM” value was determined as 12.5%.
With `CC(C)(C)NC(=O)CN(Cc1ccccc1)S(=O)(=O)c1ccccc1` the figure was 1.65%; with `CC1(C)CC(=O)C(C2(O)C(=O)NC(=O)NC2=O)=C(O)C1`, 6.08%.
With `CCOC(=O)c1nn(-c2ccccc2)c(=O)cc1OCC(=O)Nc1cc(C)ccc1C` the figure was 9.15%; with `O=C(NCCC(c1ccccc1)c1ccccc1)c1cnc2sccn2c1=O`, 11.6%.
Turning to `O=C(O)c1ccc2cc(-c3ccccc3)[nH]c2c1`, the “hERG current change (%, negative = inhibition) at 1uM” value is recorded as -5.71%.
For the compound `CCCCNC(=O)COC(=O)CCC(=O)c1cccs1`, the “hERG current change (%, negative = inhibition) at 1uM” value was 11.3%.
As to `CN(CC(=O)Nc1ccccc1C(F)(F)F)C(=O)c1cc2c(s1)CCCCC2`, the “hERG current change (%, negative = inhibition) at 1uM” value is -0.557%.
On to `O=C(NC1CCCC1)c1cc2ccccc2o1`, for which the “hERG current change (%, negative = inhibition) at 1uM” value is 3.79%.
With `COc1ccc(Cl)cc1NC(=O)CN(C)C(C)C(=O)NC(=O)NC1CCCCC1` (stereo not drawn) the figure was 11.5%; with `O=C(CC1CCCC1)Nc1ccc(Br)cc1`, 8.96%.
For the compound `CCN(CC)C(=O)C(=O)c1cccn1-c1cccc(Cl)c1C#N`, the “hERG current change (%, negative = inhibition) at 1uM” value turned out to be 9.24%.
Turning to `CCOc1ccc(-n2nc3ccc(NC(=O)CC)cc3n2)cc1`, the “hERG current change (%, negative = inhibition) at 1uM” value is recorded as 9.52%.
With `Cc1ccc(C)c(N(CC(=O)NC2CCCC2)C(=O)c2oc(C(C)(C)C)cc2C)c1` the figure was 6.1%; with `O=C1C=C(NCCc2ccccc2)C2(CCCCC2)O1`, 9.45%.
For `CCOC(=O)C(C)N1C(=O)S/C(=C/c2cc(C)n(-c3ccncc3)c2C)C1=O` (stereo not drawn) the value was 7.07%; for `c1ccc(CCN2CN=C(Nc3nc4ccccc4s3)NC2)cc1`, 8.04%; for `O=C(CSc1ccc(F)cc1)NC1CCCCC1`, 17.2%.
With `Cc1nc(NC(=O)CN2CCN(c3ccccc3F)CC2)sc1C(=O)N(C)C` the figure was 11.1%; with `Cc1ccccc1/C=N/n1c(C2CCCCC2)n[nH]c1=S`, 14.5%.
With `Cc1cnn(-c2cc(N/N=C/c3cccc(F)c3)ncn2)c1`, the “hERG current change (%, negative = inhibition) at 1uM” value is 15%.
As for `CSCC(=O)N1CCCC(C(=O)c2cc(F)ccc2F)C1` (stereo not drawn), the “hERG current change (%, negative = inhibition) at 1uM” value worked out at 10.2%.
With `COc1cc(C(=O)Nc2ccc(C(=O)NCC3CCCO3)cc2)cc(OC)c1OC` (stereo not drawn) the figure was 16.1%; with `O=C(O)C1CCCN(S(=O)(=O)c2ccc(Br)s2)C1` (stereo not drawn), 6.36%.
For `O=C(NC1CC1)C1CCN(C2CCN(C(=O)Cc3ccc(F)cc3)CC2)CC1` the value was 7.67%; for `Oc1ccccc1C1=Nc2ccccc2N=C(c2ccco2)C1`, -1.25%.
With `CC(=O)NC(=O)COC(=O)c1ccc2ncsc2c1` the figure was 4.53%; with `COC(=O)CN1C(=O)C2(OCCCO2)c2cc(Br)ccc21`, 15.3%; with `CCN1C(=O)[C@@H]2[C@@H](c3ccc(-c4cccc(Cl)c4)c(OC)c3)N3CCCC[C@@]3(C(=O)OC)[C@@H]2C1=O.O=C(O)C(F)(F)F`, 14.3%.
In the case of `O=C(O)C(Cc1ccccc1)NS(=O)(=O)c1ccc2c(c1)OCCO2` (stereo not drawn), the “hERG current change (%, negative = inhibition) at 1uM” value is listed as 6.59%.
For `COc1ccc(CCNC(=O)CN2CCCc3ccccc32)cc1OC` the value was 10.6%; for `CC(C)CN(Cc1cc2ccccc2[nH]c1=O)C(=O)c1cccnc1`, 2.95%.
With `COc1cc(C(=O)OC(C)C(=O)N2CCc3ccccc3C2)ccc1OCC(=O)N1CCOCC1` (stereo not drawn) the figure was 7.79%.
As for `COP(=O)(C#Cc1ccccc1)C(O)c1ccc(Br)cc1` (stereo not drawn), the “hERG current change (%, negative = inhibition) at 1uM” value came out at 6.81%.
For `CC(NC(=O)CCc1nnc(CCCc2ccccc2)o1)c1ccccc1` (stereo not drawn) the value was 0.626%; for `O=C(CSc1nnc(-c2cccs2)n1CC1CCCO1)N1CCCC1` (stereo not drawn), -20%.
For `CN(C(=O)c1cc(S(=O)(=O)N2CCc3ccccc32)cn1C)C1CCCCC1` the value was -1.8%; for `CC(C)NC(=O)c1cc(-c2ccco2)on1`, 3.22%.
With `Cc1ccc(-c2cc(C(=O)NCCCn3ccnc3)no2)cc1` the figure was -8.96%; with `CCCCCn1c(=O)c(C(=O)NCc2ccccc2Cl)c(O)c2ccccc21`, 18.1%; with `COCCOC(=O)c1c(N)n(CCCN2CCOCC2)c2nc3ccccc3nc12`, -0.859%.
`Cc1cc(C)c(NC(=O)C2CCC(=O)N2)c(C)c1` (stereo not drawn): the “hERG current change (%, negative = inhibition) at 1uM” value turned out to be 12.8%.
For `Cc1noc(C)c1CSc1ccccc1C(=O)Nc1nccs1` the value was 8.87%; for `CN1C(=O)Cc2cc(S(=O)(=O)Nc3ccc(N4CCOCC4)cc3)ccc21`, 12.4%.
`O=C(COC(=O)CCc1ccccc1)NC(c1ccccc1)c1ccccc1`: the “hERG current change (%, negative = inhibition) at 1uM” value is 3.99%.
In the case of `Cc1sc2ncnc(SCC(=O)c3cccs3)c2c1C`, the “hERG current change (%, negative = inhibition) at 1uM” value is given as -10.2%.
